# In publication PMC12820563, “FoxP3 forms a head-to-head dimer in vivo and stabilizes its multimerization on adjacent microsatellites”:
# This is one part of the list.
# Target: T1, MBP-FoxP1dN (Mus musculus, UniProt P58462 326-579)
# T1 sequence: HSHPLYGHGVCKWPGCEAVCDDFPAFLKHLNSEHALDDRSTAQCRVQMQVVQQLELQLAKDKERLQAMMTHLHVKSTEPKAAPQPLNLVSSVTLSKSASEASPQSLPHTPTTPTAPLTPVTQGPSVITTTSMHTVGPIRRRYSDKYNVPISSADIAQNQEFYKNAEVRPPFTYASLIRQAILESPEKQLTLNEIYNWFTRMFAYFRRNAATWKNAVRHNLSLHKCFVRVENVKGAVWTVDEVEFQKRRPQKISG
# Experiment: PD-seq (MBP pull-down with sequencing); 20 mM Tris-HCl pH 7.5, 100 mM NaCl, 1.5 mM MgCl2, 0.4 uM protein, 0.1 uM dsDNA library, 30 min, room temperature, amylose pull-down; high values mean tight binding
# Conditions: protein: recombinant; tags: His6-MBP; chain copies: 2; dsDNA, one strand shown
# Outline: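 In Tris pH 7.5 buffer with NaCl and MgCl2, 0.4 µM His6-MBP-tagged mouse FoxP3 or FoxP1 fragment lacking the N-terminus, from E. coli, met 0.1 µM Klenow-filled double-stranded degenerate DNA library for 30 min at room temperature. Three washes on amylose resin followed capture of the complexes, then proteinase K release of DNA, PCR barcoding and Illumina sequencing. Binding is taken as pooled-replicate reads-per-million enrichment of pull-down relative to input.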
row,Sequence,binding signal
1,GATGATTGTTCTCCCAGCTGATGAATTAGGAGCGTCGAGTAAACAAATTTTCCTAATCTTTCTGTTCAAGCGCCATCTAC,0.913 RPM ratio (pull-down/input)
2,GATGATTGTTCTCCCAGCTGATGAATTCTGTCTCTCGAGTAAACAAATTTTCCTAATCTTTCTGTTCAAGCGCCATCTAC,0.793 RPM ratio (pull-down/input)
3,GATGATTGTTCTCCCAGCTGATGAATTTGAGAATTCGAGTAAACAAATTTTCCTAATCTTTCTGTTCAAGCGCCATCTAC,0.916 RPM ratio (pull-down/input)
4,GATGATTGTTCTCCCAGCTGATGAATTCTTCTATTCGAGTAAACAAATTTTCCTAATCTTTCTGTTCAAGCGCCATCTAC,0.984 RPM ratio (pull-down/input)
5,GATGATTGTTCTCCCAGCTGATGAATTGCGGTCCTCGAGTAAACAAATTTTCCTAATCTTTCTGTTCAAGCGCCATCTAC,0.916 RPM ratio (pull-down/input)
6,GATGATTGTTCTCCCAGCTGATGAATTAGGACCATCGAGTAAACAAATTTTCCTAATCTTTCTGTTCAAGCGCCATCTAC,0.945 RPM ratio (pull-down/input)
7,GATGATTGTTCTCCCAGCTGATGAATTATCAACATCGAGTAAACAAATTTTCCTAATCTTTCTGTTCAAGCGCCATCTAC,2.09 RPM ratio (pull-down/input)
8,GATGATTGTTCTCCCAGCTGATGAATTTGCATCATCGAGTAAACAAATTTTCCTAATCTTTCTGTTCAAGCGCCATCTAC,1.65 RPM ratio (pull-down/input)
9,GATGATTGTTCTCCCAGCTGATGAATTGGTGGCCTCGAGTAAACAAATTTTCCTAATCTTTCTGTTCAAGCGCCATCTAC,0.879 RPM ratio (pull-down/input)
10,GATGATTGTTCTCCCAGCTGATGAATTCAGCACATCGAGTAAACAAATTTTCCTAATCTTTCTGTTCAAGCGCCATCTAC,0.96 RPM ratio (pull-down/input)
11,GATGATTGTTCTCCCAGCTGATGAATTACACACGTCGAGTAAACAAATTTTCCTAATCTTTCTGTTCAAGCGCCATCTAC,1.26 RPM ratio (pull-down/input)
12,GATGATTGTTCTCCCAGCTGATGAATTCGAAACCTCGAGTAAACAAATTTTCCTAATCTTTCTGTTCAAGCGCCATCTAC,0.795 RPM ratio (pull-down/input)
13,GATGATTGTTCTCCCAGCTGATGAATTTTAGACATCGAGTAAACAAATTTTCCTAATCTTTCTGTTCAAGCGCCATCTAC,1.05 RPM ratio (pull-down/input)
14,GATGATTGTTCTCCCAGCTGATGAATTCGAACGGTCGAGTAAACAAATTTTCCTAATCTTTCTGTTCAAGCGCCATCTAC,0.787 RPM ratio (pull-down/input)
15,GATGATTGTTCTCCCAGCTGATGAATTGTGGTCGTCGAGTAAACAAATTTTCCTAATCTTTCTGTTCAAGCGCCATCTAC,1.02 RPM ratio (pull-down/input)
16,GATGATTGTTCTCCCAGCTGATGAATTAAGTAATTCGAGTAAACAAATTTTCCTAATCTTTCTGTTCAAGCGCCATCTAC,0.984 RPM ratio (pull-down/input)
17,GATGATTGTTCTCCCAGCTGATGAATTCAAATAATCGAGTAAACAAATTTTCCTAATCTTTCTGTTCAAGCGCCATCTAC,1.29 RPM ratio (pull-down/input)
18,GATGATTGTTCTCCCAGCTGATGAATTGGTTGCCTCGAGTAAACAAATTTTCCTAATCTTTCTGTTCAAGCGCCATCTAC,1.03 RPM ratio (pull-down/input)
19,GATGATTGTTCTCCCAGCTGATGAATTGTCATTTTCGAGTAAACAAATTTTCCTAATCTTTCTGTTCAAGCGCCATCTAC,1.3 RPM ratio (pull-down/input)
20,GATGATTGTTCTCCCAGCTGATGAATTAACTCTTTCGAGTAAACAAATTTTCCTAATCTTTCTGTTCAAGCGCCATCTAC,0.876 RPM ratio (pull-down/input)

row,Sequence,binding signal
1,GATGATTGTTCTCCCAGCTGATGAATTATAGACATCGAGTAAACAAATTTTCCTAATCTTTCTGTTCAAGCGCCATCTAC,1.21 RPM ratio (pull-down/input)
2,GATGATTGTTCTCCCAGCTGATGAATTAACGGTCTCGAGTAAACAAATTTTCCTAATCTTTCTGTTCAAGCGCCATCTAC,0.785 RPM ratio (pull-down/input)
3,GATGATTGTTCTCCCAGCTGATGAATTCTGCTGCTCGAGTAAACAAATTTTCCTAATCTTTCTGTTCAAGCGCCATCTAC,0.817 RPM ratio (pull-down/input)
4,GATGATTGTTCTCCCAGCTGATGAATTAATCGCCTCGAGTAAACAAATTTTCCTAATCTTTCTGTTCAAGCGCCATCTAC,0.916 RPM ratio (pull-down/input)
5,GATGATTGTTCTCCCAGCTGATGAATTAGAAGTCTCGAGTAAACAAATTTTCCTAATCTTTCTGTTCAAGCGCCATCTAC,0.866 RPM ratio (pull-down/input)
6,GATGATTGTTCTCCCAGCTGATGAATTCGAGCGCTCGAGTAAACAAATTTTCCTAATCTTTCTGTTCAAGCGCCATCTAC,0.761 RPM ratio (pull-down/input)
7,GATGATTGTTCTCCCAGCTGATGAATTGACAACCTCGAGTAAACAAATTTTCCTAATCTTTCTGTTCAAGCGCCATCTAC,1.19 RPM ratio (pull-down/input)
8,GATGATTGTTCTCCCAGCTGATGAATTCATGCCTTCGAGTAAACAAATTTTCCTAATCTTTCTGTTCAAGCGCCATCTAC,0.948 RPM ratio (pull-down/input)
9,GATGATTGTTCTCCCAGCTGATGAATTCTTACTCTCGAGTAAACAAATTTTCCTAATCTTTCTGTTCAAGCGCCATCTAC,0.863 RPM ratio (pull-down/input)
10,GATGATTGTTCTCCCAGCTGATGAATTCCTACAATCGAGTAAACAAATTTTCCTAATCTTTCTGTTCAAGCGCCATCTAC,1.13 RPM ratio (pull-down/input)
11,GATGATTGTTCTCCCAGCTGATGAATTCACATCCTCGAGTAAACAAATTTTCCTAATCTTTCTGTTCAAGCGCCATCTAC,0.852 RPM ratio (pull-down/input)
12,GATGATTGTTCTCCCAGCTGATGAATTGTGGGCGTCGAGTAAACAAATTTTCCTAATCTTTCTGTTCAAGCGCCATCTAC,0.998 RPM ratio (pull-down/input)
13,GATGATTGTTCTCCCAGCTGATGAATTGGGAGCTTCGAGTAAACAAATTTTCCTAATCTTTCTGTTCAAGCGCCATCTAC,0.806 RPM ratio (pull-down/input)
14,GATGATTGTTCTCCCAGCTGATGAATTATGCAAGTCGAGTAAACAAATTTTCCTAATCTTTCTGTTCAAGCGCCATCTAC,1.06 RPM ratio (pull-down/input)
15,GATGATTGTTCTCCCAGCTGATGAATTTCGCTAATCGAGTAAACAAATTTTCCTAATCTTTCTGTTCAAGCGCCATCTAC,0.968 RPM ratio (pull-down/input)
16,GATGATTGTTCTCCCAGCTGATGAATTACTTGTTTCGAGTAAACAAATTTTCCTAATCTTTCTGTTCAAGCGCCATCTAC,1.56 RPM ratio (pull-down/input)
17,GATGATTGTTCTCCCAGCTGATGAATTATGGCGGTCGAGTAAACAAATTTTCCTAATCTTTCTGTTCAAGCGCCATCTAC,0.903 RPM ratio (pull-down/input)
18,GATGATTGTTCTCCCAGCTGATGAATTGACATCCTCGAGTAAACAAATTTTCCTAATCTTTCTGTTCAAGCGCCATCTAC,1.19 RPM ratio (pull-down/input)
19,GATGATTGTTCTCCCAGCTGATGAATTGGCACAGTCGAGTAAACAAATTTTCCTAATCTTTCTGTTCAAGCGCCATCTAC,0.849 RPM ratio (pull-down/input)
20,GATGATTGTTCTCCCAGCTGATGAATTGATCTCGTCGAGTAAACAAATTTTCCTAATCTTTCTGTTCAAGCGCCATCTAC,0.986 RPM ratio (pull-down/input)
